Here are results for 87 compounds from ChEMBL document CHEMBL4888484, “Replenishing the malaria drug discovery pipeline: Screening and hit evaluation of the MMV Hit Generation Library 1 (HGL1) against asexual blood stage Plasmodium falciparum ,using a nano luciferase reporter read-out” (2022).

Hit rate of the full screen: of about 150,000 compounds, about 540 (0.36%) showed an effect of 50% or more. The list shows a part of the results.

The subject of this assay is Plasmodium falciparum. In words: Primary screen in NF54 nanoGlo assay, in single point, at 2uM, 72h; a lower Z score goes with more inhibition. Format: functional, Erythrocyte. Particulars: timepoint 72 hour.
As for `O=C(c1ccoc1)N1CCC(n2c(=O)[nH]c3ccccc3c2=O)CC1`, the % Inhibition – broadly, the change of the read-out against control, counted positive when it falls – is on record as 0% and the Z score is 0.01.
The like results for `Cc1oc(-c2ccsc2)nc1CN1CCn2ncnc2C1` were, in that order, -12% and 1.79.
For `CC(C)(C)C(=O)NCCCC(=O)NCCCOc1ccc(F)cc1`, in that order: -8% and 1.09.
The like results for `COc1ccccc1-n1cnc2nc3c(c(-c4ccccc4)c21)CCCC3` were, in that order, -7% and 1.3.
For `Cc1ccc(NC(=O)N2CC[C@H](Cc3nccs3)C2)c(N(C)C)n1`, the “% Inhibition” value was -4% and the Z score was determined as 0.92.
Regarding `Cc1cccc(N2CCN(C(=O)CN3C(=O)C4CC=CCC4C3=O)CC2)c1C` (centres undefined), the “% Inhibition” value is given as -1% and the Z score turned out to be 0.22.
As to `CCCCN(C)C(=O)c1cc(C[C@H](C)c2ccccc2)no1`, the “% Inhibition” value is reported as -16% and the Z score was 2.8.
With `Cc1cnc(CNc2ccc3cc[nH]c3n2)cn1`, the “% Inhibition” value was -12% and the Z score is listed as 2.2.
The like results for `CCS(=O)(=O)N1CCC[C@H](Oc2ncc(F)cn2)C1` were, in that order, -1% and 0.15.
For `CC[C@H]1CN(S(=O)(=O)c2c(C)noc2C)CC[C@H]1CC(=O)Nc1nccs1`, in that order: 10% and -1.13.
The like results for `COc1ccc(NC(=O)c2occc2-c2ccccc2)cc1OC` were, in that order, 5% and -0.63.
Regarding `O=c1c2cc(Br)ccc2nc(-c2ccc(Cl)c(F)c2)n1Cc1ccccc1`, the “% Inhibition” value came to 1% and the Z score is listed as -0.07.
The like results for `c1ccc(CNc2ncc(CN3CCC(c4ccncn4)CC3)cn2)cc1` were, in that order, 1% and -0.16.
As to `COc1ccc2c(c1)CCN(Cc1cc(C#N)n(C)c1C)C2`, the “% Inhibition” value is recorded as 12% and the Z score is given as -2.
Consider `COc1ccc(-c2cn3c(C(=O)N4CCNC(=O)C4)csc3n2)cc1F`, for which the “% Inhibition” value is listed as -19% and the Z score stood at 2.43.
For `Cc1noc(C)c1CN(C)C(=O)c1ccc(O)c(Cl)c1`, in that order: -8% and 1.32.
The like results for `Cc1cccc(Nc2nc(C)c(C(=O)NCc3ccc4c(c3)OCO4)s2)n1` were, in that order, -10% and 1.6.
For `Clc1ccccc1-c1cncnc1[C@H]1CCCNC1`, in that order: -8% and 1.13.
`Cc1c(CCNC(=O)[C@H]2CCS(=O)(=O)C2)c2cccc3c2n1CCC3`: the “% Inhibition” value is reported as -11% and the Z score turned out to be 1.99.
The like results for `CC(=O)c1cc(C(=O)NCCc2ccccc2C(F)(F)F)[nH]n1` were, in that order, -22% and 1.96.
The like results for `Cc1nnc(NCC2(N3CCOCC3)CCCCC2)c(C#N)c1C` were, in that order, -10% and 1.68.
For `O=S(=O)(NCC1(Cn2ccnc2)CC1)c1cn[nH]c1`, in that order: -17% and 3.39.
With `Cc1cc(C)nc(CN(C)C(=O)CCCn2cnnn2)c1`, the “% Inhibition” value is listed as -7% and the Z score worked out at 1.29.
For `COc1ccc2c(c1)N1CCN(c3ccccc3)CC1C(C(=O)NCc1ccccn1)C2` (centres undefined), in that order: -1% and 0.15.
The like results for `CC[C@](C)(NC(=O)C(F)(F)F)c1nnnn1-c1cccc(C)c1` were, in that order, 2% and -0.18.
For `CCCc1c(NC(=O)N2CCC=C(C)C2)cnn1-c1cccc(C)c1`, in that order: -14% and 2.7.
For the compound `COc1ccc(NC(=O)CN2C(=O)CC(c3ccccc3)=Nc3cccnc32)cc1Cl`, the “% Inhibition” value came out at 27% and the Z score is on record as -3.01.
For `Cc1ccc2ncc(CNc3nnc([C@@H]4Cc5ccccc5O4)o3)n2c1`, in that order: -2% and 0.2.
With `CC(C)OCCC(=O)N(C)[C@H]1CCN(CC(F)(F)F)C1=O`, the “% Inhibition” value is on record as -7% and the Z score is 0.92.
The like results for `Fc1ccc(C[n+]2csc3ccccc32)cc1` were, in that order, -29% and 5.5.
The like results for `Cc1ccc(C(O)CN2CCCC2c2cnn(C)c2)cc1C` (centres undefined) were, in that order, 1% and -0.13.
With `FC(F)(F)c1cnccc1N1CC[C@H](c2ccccn2)C1`, the “% Inhibition” value is reported as -18% and the Z score was found to be 2.2.
The like results for `Cc1noc(C)c1C(=O)N[C@@H]1c2cccc(Br)c2CC1(C)C` were, in that order, 3% and -0.41.
The like results for `Cc1n[nH]cc1CNCC1(c2ccccc2)CC1` were, in that order, -14% and 2.16.
Turning to `CCn1ccnc1CNC(=O)c1sc(C)nc1C`, the “% Inhibition” value is recorded as -6% and the Z score is recorded as 1.04.
The like results for `Cn1nccc1-c1ccnc2nc(CCc3c[nH]c4ccccc34)nn12` were, in that order, -14% and 2.34.
The like results for `O=C(CO)N[C@H]1CN(Cc2c(Cl)cncc2Cl)C[C@@H]1C1CC1` were, in that order, -8% and 1.57.
For `Cc1c(Cl)cccc1S(=O)(=O)N(C)C[C@H]1CC(=O)N(C(C)(C)C)C1`, the “% Inhibition” value was -16% and the Z score is 1.59.
The like results for `CCCCC[C@H](NC(=O)c1scnc1C)C(=O)O` were, in that order, -9% and 1.41.
For `N#Cc1sccc1-c1cccc(-c2cc[nH]n2)c1`, in that order: 6% and -0.79.
For `CCn1cnc2cc(-c3noc(-c4ccc(C(F)(F)F)cc4)n3)ccc21`, in that order: 0% and -0.05.
With `CCC(=O)N1CCCCC1C1CCCN(C(=O)OC(C)(C)C)C1` (centres undefined), the “% Inhibition” value was -3% and the Z score amounted to 0.34.
For `C[C@H](NCc1c2c(nn1C)CCCC2)c1ccc(F)cc1N(C)C`, in that order: -14% and 1.73.
Take `CC[C@H](OC1CCCCC1)C(=O)NCc1nc(-c2ccco2)n[nH]1`: the “% Inhibition” value is listed as -3% and the Z score is listed as 0.56.
For `Cc1ncc(C(=O)N2C(C)CCC2C)c(O)c1Br` (centres undefined), in that order: -16% and 1.61.
Take `O[C@H]1[C@H](NCc2ccccn2)[C@H]2CO[C@H](O2)[C@@H]1n1cc(Cl)cn1`: the “% Inhibition” value came out at 10% and the Z score is on record as -1.58.
For `Cc1ccn2c(NCc3csc(C)n3)nnc2c1`, in that order: -10% and 1.02.
The like results for `CCCc1nnc(NC(=O)CN2CCC(O)(c3ccccn3)CC2)s1` were, in that order, -6% and 1.18.
The like results for `COc1cccc2sc(OC3CN(S(C)(=O)=O)C3)nc12` were, in that order, -3% and 0.37.
Turning to `COc1ccc(NC(=O)C(C)N2C(=O)c3ccccc3C2c2c[nH]c3ccccc23)cc1` (centres undefined), the “% Inhibition” value amounted to 5% and the Z score is listed as -0.66.
The like results for `CC(C)(C)OC(=O)NC(C)(C)c1cc(CN2CCNC(=O)C2)on1` were, in that order, -9% and 0.97.
For `CN1CC(NC(=O)C(C#N)Cc2ccc(C#N)cc2)Cc2ccccc21` (centres undefined), in that order: -25% and 4.67.
For `CCOc1ncccc1NC(=O)C1CCCCC1`, in that order: 2% and -0.38.
Consider `CC(C)n1cc([C@]2(O)CCN(c3ccnc(C(=O)O)c3)C2)nn1`, for which the “% Inhibition” value is -13% and the Z score was determined as 1.44.
The like results for `COc1cccc(C(=O)N2CCN(C(=O)C3(C)CC(=O)C3)CC2)c1` were, in that order, -24% and 3.75.
For `CCOc1ccc(NC(=O)[C@H]2Nc3cc(F)ccc3S(=O)(=O)N2)cc1`, in that order: -8% and 0.98.
For `COc1cccc(S(=O)(=O)N2CCC(n3c(C)nn(C)c3=O)CC2)c1`, in that order: 9% and -1.27.
Consider `NC(=O)Cn1cc(Nc2ccc(C(F)(F)F)cn2)cn1`, for which the “% Inhibition” value worked out at 4% and the Z score is listed as -0.49.
With `CC(C#N)(NC(=O)CN1CCCC2(CC=CCC2)C1)C1CC1` (centres undefined), the “% Inhibition” value was -2% and the Z score was 0.2.
Turning to `CCOc1ccc(NC2=NCCC2)cc1`, the “% Inhibition” value was -13% and the Z score amounted to 1.56.
For `Cc1cc(N[C@H]2CCc3ccccc3NC2=O)nc(C)n1`, in that order: 4% and -0.57.
The like results for `CCNC(=O)CCC(=O)N1CCc2ncc(C(F)(F)F)cc2C1` were, in that order, -1% and 0.1.
For `COc1cc(C(=O)N(C)C)ccc1NC(=O)N1CCC[C@@H]1CN1CCOCC1`, in that order: -2% and 0.28.
Consider `O=C1CC(c2ccc(Cl)cc2)CC(=O)N1Cc1ccc(F)cc1`, for which the “% Inhibition” value was -1% and the Z score was determined as 0.22.
The like results for `C[C@]1(/[N+]([O-])=C/c2cccc(Cl)c2)CCCCC1=O` were, in that order, -7% and 0.82.
For `N#CC1(NC(=O)c2ccc3ccccc3c2)CCCCC1`, the “% Inhibition” value stood at 5% and the Z score is given as -0.45.
For `NC(=O)[C@H]1CCCN(Cc2ccc3c(c2)CN(Cc2cccc(C(F)(F)F)c2)CCO3)C1`, in that order: -4% and 0.54.
The like results for `Cc1ccc(-c2ccc3nn(Cc4cccc(F)c4)c(=O)n3n2)cc1C` were, in that order, -12% and 1.51.
The like results for `Cc1cc(C(=O)NCC2(COc3ccccc3)CC2)nc(N)n1` were, in that order, 15% and -2.
Consider `O=C(NCC[C@H]1CCc2ccccc2N1)c1ncoc1-c1ccon1`, for which the “% Inhibition” value was found to be 14% and the Z score was -1.79.
The like results for `Cc1ncccc1OCC(=O)NCc1ccc(Cl)s1` were, in that order, 28% and -3.8.
For `Cc1cccc([C@@H]2CCCCN2C2CCOCC2)c1C`, the “% Inhibition” value is recorded as -10% and the Z score was found to be 0.96.
As to `CCn1c(-c2cc(NC(=O)c3cc(C)cc(C)c3)[nH]n2)cc2ccc(OC)cc21`, the “% Inhibition” value was determined as 17% and the Z score is on record as -1.96.
The like results for `O=S(=O)(c1ccsc1)N1CC2CCC(C1)O2` were, in that order, -9% and 0.75.
For the compound `COCC[C@H](NC(=O)c1cnc2c(c1)ncn2C)C(C)C`, the “% Inhibition” value is 28% and the Z score was -3.81.
For `Cc1csc(CNc2cccc(CN3CC(C)OC(C)C3)c2)n1` (centres undefined), the “% Inhibition” value is on record as -11% and the Z score is listed as 1.42.
For `O=C(Cn1cnc2ccccc2c1=O)c1ccc2c(c1)OCCO2`, in that order: -6% and 1.25.
Consider `CCC[C@H]1CN(S(C)(=O)=O)C[C@@H]1NC(=O)c1ccc(C)n(C)c1=O`, for which the “% Inhibition” value is reported as -6% and the Z score was found to be 0.85.
For `c1ccc2oc(CN3CCOC4CCCCC43)nc2c1` (centres undefined), in that order: 2% and -0.22.
For `Cn1cc(C(=O)NCCOc2ccc3ccccc3n2)cn1`, in that order: 41% and -4.63.
For `O=C(NCc1ccc(N2CCCC2)cc1)c1cccc(S(=O)(=O)N2CCOCC2)c1`, in that order: -10% and 1.7.
Regarding `CCc1cccc(Nc2c(C(=O)OC(C)C)cnc3nc(C)ccc23)c1`, the “% Inhibition” value is recorded as -7% and the Z score amounted to 0.87.
`CCOc1ccccc1CN1CCN(Cc2nnc(C)s2)[C@@H](C)C1`: the “% Inhibition” value is on record as -20% and the Z score is on record as 1.8.
The like results for `CC(C)(C)CN1CCN(S(C)(=O)=O)CC1` were, in that order, -1% and 0.12.
As for `CCOC1CC(CC(=O)Nc2cc(-c3cccc(F)c3)on2)C1` (centres undefined), the “% Inhibition” value is on record as -8% and the Z score was 1.45.
The like results for `Nc1c(C(=O)c2ccco2)oc2ccccc12` were, in that order, 4% and -0.39.
The like results for `CCCC[C@@H](C(=O)Nc1cc(C)on1)N1CC(n2cc(C)cn2)C1` were, in that order, -6% and 0.82.
